PubChem BioAssay AID485294 (National Center for Advancing Translational Sciences (NCATS), 2010)
Screen size: about 370,000 compounds; about 150 (0.041%) were called active. This list was built around the results that the source calls inconclusive (neither active nor inactive); the mix of calls is not that of the screen. The call rests on the fitted dose curve; in most records, active means well fitted inhibition curve with a large enough effect; inconclusive means small, poorly fitted or top-dose-only effect; inactive means flat fitted curve, though single readings scatter. No potency is given beside an inconclusive call; the fits are too rough.

Molecular target: Beta-lactamase (Escherichia coli (strain K12)) (UniProt P00811)
Assay: qHTS Inhibitors of AmpC Beta-Lactamase (assay with detergent); further: nearly all actives have a fitted effect of over 25% in size;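 on activity change, negative = inhibition: 0% = no-compound wells and -100% = no-enzyme wells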
Conditions: AmpC hydrolysis of nitrocefin, absorbance 480 nm, 0.01% Triton; activity change, negative = inhibition: at 114 µM (top of the series)
In short: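 AmpC (5.3 nM in the dispensed reagent) in 20 mM phosphate pH 7.0 with 0.01% (detergent screen) or 0.0001% Triton X-100 was preincubated with compounds for 15 min at room temperature. Nitrocefin was then added from an 800 uM solution, and hydrolysis was followed at 480 nm.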
Potency means the concentration at half of the fitted maximal effect; tags describe the fitted curve by direction and shape.

Sequence of UniProt P00811 (P00811 whole entry, looked up): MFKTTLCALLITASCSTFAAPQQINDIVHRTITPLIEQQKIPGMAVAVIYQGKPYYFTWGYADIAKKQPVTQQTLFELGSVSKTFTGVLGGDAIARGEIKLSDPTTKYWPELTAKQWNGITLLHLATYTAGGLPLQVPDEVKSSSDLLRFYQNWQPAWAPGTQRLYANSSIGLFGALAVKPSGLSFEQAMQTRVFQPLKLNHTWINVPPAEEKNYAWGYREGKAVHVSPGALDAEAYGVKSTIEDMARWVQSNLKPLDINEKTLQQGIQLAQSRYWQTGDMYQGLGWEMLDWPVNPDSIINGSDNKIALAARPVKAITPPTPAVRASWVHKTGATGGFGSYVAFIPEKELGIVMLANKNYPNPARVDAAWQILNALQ

Compound | Potency | activity change, negative = inhibition
Nc1nc(N2CCCCC2)nc(N2CCCCC2)n1 | inconclusive [inhibitor, full curve] | 
COc1ccc(CCN(C)C(=O)c2oc3ccccc3c2C)cc1OC | inconclusive [inhibitor, partial curve, poor fit] | 
Cc1ccc(C(=O)c2ccccc2C(=O)O)c(O)c1 | inconclusive [inhibitor, full curve, poor fit] | 
COc1cccc(N(C(C)=O)c2nc(C)cc(C)c2C#N)c1 | inconclusive [inhibitor, full curve] | 
Fc1cccc(F)c1-c1nc(-c2ccncc2)no1 | inactive | 
O=C1CCC/C(=N/NC(=O)c2cc(NS(=O)(=O)c3cccs3)cc(NS(=O)(=O)c3cccs3)c2)C1 |  | inactive: -4.02%
CNc1ccccc1C(=O)OCC(=O)Nc1ccc2c(c1)OCO2 | inconclusive [inhibitor, partial curve, poor fit] | 
Oc1ccc(/C=N/NC(=S)Nc2cccnc2)cc1O | inconclusive [inhibitor, single point] | 
CCN1C(=NCc2ccccc2)N[C@@H](c2ccccc2)[C@H](C(=O)OC)[C@H]1C | inconclusive [inhibitor, full curve, poor fit] | 
O=C(N/N=C1\CCCc2ccccc21)C(O)c1ccccc1 (stereo not drawn) | inconclusive [inhibitor, partial curve] | 
CCNc1nnc(SCC(=O)c2cc(C)n(C3CC3)c2C)s1 | inconclusive [inhibitor, partial curve] | 
Cc1cccc(NC(=O)c2cccc(C(=O)Nc3cccc(C)n3)c2)n1 | inconclusive [inhibitor, single point] | 
CCOc1ccc(S(=O)(=O)NCC(c2ccc3c(c2)OCO3)N2CCN(C)CC2)cc1 (stereo not drawn) |  | inactive: -13.1%
CN1/C(=C\C(=O)CSc2nnc(N)s2)C(C)(C)c2ccccc21 | inconclusive [inhibitor, partial curve, poor fit] | 
Cc1occc1-c1nnc(SCC(=O)NCc2ccco2)n1CC(C)C | inconclusive [inhibitor, full curve, poor fit] | 
COC(=O)[C@@H](NC(=O)CCc1nnc(-c2ccsc2)o1)C(C)C |  | inactive: 5%
C/C(=N\Nc1nc2ccccc2s1)c1ccc2c(c1)OCO2 | inconclusive [inhibitor, partial curve] | 
COc1cccc(/C=N/NC(=O)c2c(C)nc3ccc(Br)cn23)c1 | inconclusive [inhibitor, single point] | 
COCCNS(=O)(=O)c1cc(OC)ccc1OC | inconclusive [inhibitor, full curve, poor fit] | 
O=C(Cc1csc(-c2ccccc2)n1)NCc1ccc(F)cc1 |  | inactive: -14.7%
CCCS(=O)(=O)N1CCCC(C(=O)NCCCN(Cc2ccccc2)C(C)C)C1 (stereo not drawn) | inconclusive [inhibitor, partial curve] | 
COc1ccccc1CN1CCC(n2nccc2NC(=O)CCc2ccccc2)CC1 |  | inactive: -3.14%
O=C(NC(=S)N1CCCc2ccccc21)c1ccccc1 |  | inactive: -0.228%

Compound | Potency | activity change, negative = inhibition
COc1ccc(C(=O)Nc2ccc3nc(SCc4ccc(C)cc4)sc3c2)cc1 |  | inactive: 15.2%
Cn1c(=O)c2c(nc(Oc3ccccc3N)n2C)n(C)c1=O | inconclusive [inhibitor, partial curve, poor fit] | 
O=C(O)CCC/C=C\C[C@@H]1[C@@H](/C=C/[C@@H](O)COc2cccc(Cl)c2)[C@H](O)C[C@@H]1O | inconclusive [inhibitor, full curve, poor fit] | 
CCOC(=O)c1nn(-c2ccc(C)cc2)c(C)c1C(C)=O |  | inactive: 3.8%
Cc1ccccc1NC(=O)CCc1c(C)nn(-c2ccc(N3CCCCC3)nn2)c1C | inactive | 
COc1cc(-c2nc3sccn3c2Nc2cccc(C)c2)ccc1O |  | inactive: -9.15%
CC(C)/C(=N/Nc1ccccc1[N+](=O)[O-])c1ccccc1 |  | inactive: 0.866%
CCN(CC)CCOC(=O)C12CC3CC(CC(C3)C1)C2 | inconclusive [inhibitor, full curve, poor fit] | 
Cc1cc2cc(CCNC(=O)CC(C)C)c(=O)[nH]c2cc1C | inconclusive [inhibitor, full curve, poor fit] | 
COc1ccccc1N(C(=O)CN1C(=O)c2ccccc2S1(=O)=O)C(C(=O)NCC1CCCO1)c1ccc(F)cc1 (stereo not drawn) | inconclusive [inhibitor, full curve, poor fit] | 
Cn1c(=O)c2c(nc(SCc3ccccn3)n2C)n(C)c1=O | inconclusive [inhibitor, full curve, poor fit] | 
CCOc1ccc(CNC(=O)CCn2nc(C)c3c(C)n(-c4ccccc4)nc3c2=O)cc1 |  | inactive: 30.6%
Cc1ccc(S(=O)(=O)NCc2cccnc2)cc1C(=O)N1CCCC1 | inconclusive [inhibitor, full curve, poor fit] | 
COc1cc(SC)ccc1C(=O)Nc1ncc(Cl)cc1Cl |  | inactive: 1.22%
Cc1cc(C)n(S(=O)(=O)c2cc(C)c(C)cc2C)n1 | inconclusive [inhibitor, full curve, poor fit] | 
Cc1nnc(SCC(=O)Nc2cccc(S(=O)(=O)N3CCCCC3)c2)s1 |  | inactive: 0.242%
C=CCNC(=S)NN=C1CCC(c2ccccc2)CC1 (stereo not drawn) | inconclusive [inhibitor, full curve, poor fit] | 
Cc1c(Cl)cccc1NC(=O)CCC(=O)NNC(=O)c1ccco1 | inconclusive [inhibitor, single point] | 
CC(=O)Nc1ccc(S(=O)(=O)Nc2ccc(Cl)nn2)cc1 | inconclusive [inhibitor, full curve, poor fit] | 
COc1ccccc1C1SCCN1C(=O)c1ccc([N+](=O)[O-])cc1 (stereo not drawn) | inconclusive [inhibitor, full curve, poor fit] | 
O=C(c1ccco1)N(Cc1nc2ccccc2c(=O)[nH]1)C1CCCC1 | inconclusive [inhibitor, full curve, poor fit] | 
O=C(O)c1nn(-c2ccccc2)c(-c2ccccc2)c1C(=O)c1ccccc1 | inconclusive [inhibitor, full curve, poor fit] | 
COc1ccc(C(CNC(=O)C2CC(=O)N(Cc3ccccc3)C2)N2CCOCC2)cc1 (stereo not drawn) | inconclusive [inhibitor, full curve, poor fit] | 

Compound | Potency | activity change, negative = inhibition
COc1ccc(CCNC(=O)CC(=O)NCCc2ccc(OC)cc2)cc1 | inconclusive [inhibitor, full curve, poor fit] | 
COc1ccc(Nc2nc(N)nc(COc3ccc(OC)cc3)n2)cc1 | inconclusive [inhibitor, single point] | 
CC1CCCN(C(=O)COc2ccc3c(c2)OCO3)C1 (stereo not drawn) |  | inactive: 3.75%
Cc1ccc(OC(C)C(=O)Nc2ccccc2C(=O)NCc2cccnc2)cc1C (stereo not drawn) |  | inactive: -6.6%
CCn1c(SCC(=O)Nc2ccccc2N2CCOCC2)nnc1-c1ccccc1O | inconclusive [inhibitor, full curve, poor fit] | 
CCS(=O)(=O)c1nc2ccccc2n1Cc1ccccc1Cl | inconclusive [inhibitor, full curve, poor fit] | 
COc1ccc(OCC(=O)NC(=S)Nc2ccc(S(=O)(=O)Nc3cc(OC)nc(OC)n3)cc2)cc1 | inconclusive [inhibitor, full curve] | 
O=C(COC(=O)c1ccc(S(=O)(=O)NCc2ccco2)cc1)NCc1ccc(F)cc1 | inconclusive [inhibitor, full curve, poor fit] | 
Cn1c(=O)c(N)c2c3c(c(Br)ccc31)C(=O)c1ccccc1-2 |  | inactive: 12.4%
CCC1(c2ccc(OC)cc2)NC(=O)N(CC(=O)c2ccc3c(c2)OCCO3)C1=O (stereo not drawn) | inconclusive [inhibitor, partial curve, poor fit] | 
O=C(Nc1ccccc1)Nc1nncs1 | inconclusive [inhibitor, full curve] | 
CC(=O)Nc1ccc2nc(NC(=O)COc3ccc([N+](=O)[O-])cc3)sc2c1 |  | inactive: -2.58%
Cc1ccc2nc(SCC(=O)c3ccc(O)cc3O)[nH]c2c1 |  | inactive: 2.69%
CCc1cc2c(cc3c(=O)n(CC(=O)N4CCC(C)CC4)nc(CC)n32)s1 |  | inactive: -6.08%
CC[C@@H](C(=O)[C@@H](C)[C@@H](O)[C@H](C)CCc1ccc(C)c(O)c1C(=O)O)[C@H]1O[C@](CC)([C@H]2CC[C@](O)(CC)[C@H](C)O2)C[C@@H]1C |  | inactive: 3.9%
CCCS(=O)(=O)c1ncc(Cl)c(C(=O)Nc2c(C(=O)c3ccccc3)oc3ccccc23)n1 |  | inactive: 8.39%
C/C(=N/NS(=O)(=O)c1ccc(C(C)(C)C)cc1)c1ccc2c(c1)OCO2 | inconclusive [inhibitor, full curve] | 
COC(=O)c1cn[nH]c1NC(=S)Nc1ccccc1C |  | inactive: -2.77%
Cc1nc2c(-c3ccccc3)c(C)nn2c(C)c1CCC(=O)N1CCN(c2ccccc2)CC1 | inconclusive [inhibitor, single point] | 
CCN(CC)c1ccc2cc(C(=O)Nc3cccnc3N3CCOCC3)c(=O)oc2c1 | inconclusive [inhibitor, partial curve, poor fit] | 
O=C(CSc1ncnc2c1cnn2-c1ccccc1)NC1CCCC1 |  | inactive: -7.49%
Cc1ccc(NC(=O)C2C3C=CC4(O3)C2C(=O)N(CCCN2CCOCC2)C4C(=O)NC2CCCCC2)cc1Cl (stereo not drawn) | inconclusive [inhibitor, partial curve, poor fit] | 
